Results taken from the supplement of paper PMC8728848.
This is one part of the list.

Tests used:
Assay in all cases: glycan array binding signal (z-score within array); higher = stronger binding
Conditions in all cases: glycan notation: IUPAC condensed, linker removed; mutation: H262T
[1] = biological target: Gal(b1-4)GalNAc(b1-3)[Fuc(a1-2)]Gal(b1-4)GlcNAc
Method in brief: (§1)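 The binding signal is a Z-score computed within each array. Data were drawn from 3228 arrays in the Consortium for Functional Glycomics database, restricted to those with a known protein sequence. Scores were averaged over arrays of the same protein sequence at different concentrations or buffers, and over linkers, and negative values can be taken as non-binding.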

[2] = biological target: Gal(b1-4)Glc
Method in brief: as §1

[3] = biological target: Gal(b1-4)Glc6S
Method in brief: as §1

[4] = biological target: Gal(b1-4)GlcNAc
Method in brief: as §1

[5] = biological target: Gal(b1-4)GlcNAc(a1-6)Gal(b1-4)GlcNAc
Method in brief: as §1

[6] = biological target: Gal(b1-4)GlcNAc(b1-2)Man
Method in brief: as §1

[7] = biological target: Gal(b1-4)GlcNAc(b1-2)Man(a1-3)Man(b1-4)GlcNAc(b1-4)GlcNAc
Method in brief: as §1

[8] = biological target: Gal(b1-4)GlcNAc(b1-2)Man(a1-3)[Gal(b1-4)GlcNAc(b1-2)Man(a1-6)]Man(b1-4)GlcNAc(b1-4)GlcNAc
Method in brief: as §1

[9] = biological target: Gal(b1-4)GlcNAc(b1-2)Man(a1-3)[Gal(b1-4)GlcNAc(b1-2)Man(a1-6)]Man(b1-4)GlcNAc(b1-4)[Fuc(a1-6)]GlcNAc
Method in brief: as §1

[10] = biological target: Gal(b1-4)GlcNAc(b1-2)Man(a1-3)[Gal(b1-4)GlcNAc(b1-2)Man(a1-6)][Gal(b1-4)GlcNAc(b1-4)]Man(b1-4)GlcNAc(b1-4)[Fuc(a1-6)]GlcNAc
Method in brief: as §1

[11] = biological target: Gal(b1-4)GlcNAc(b1-2)Man(a1-3)[Gal(b1-4)GlcNAc(b1-2)Man(a1-6)][GlcNAc(b1-4)]Man(b1-4)GlcNAc(b1-4)[Fuc(a1-6)]GlcNAc
Method in brief: as §1

[12] = biological target: Gal(b1-4)GlcNAc(b1-2)Man(a1-3)[GlcNAc(b1-2)Man(a1-6)]Man(b1-4)GlcNAc(b1-4)GlcNAc
Method in brief: as §1

[13] = biological target: Gal(b1-4)GlcNAc(b1-2)Man(a1-3)[GlcNAc(b1-4)][Gal(b1-4)GlcNAc(b1-2)Man(a1-6)]Man(b1-4)GlcNAc(b1-4)GlcNAc
Method in brief: as §1

[14] = biological target: Gal(b1-4)GlcNAc(b1-2)Man(a1-3)[Man(a1-6)]Man(b1-4)GlcNAc(b1-4)GlcNAc
Method in brief: as §1

[15] = biological target: Gal(b1-4)GlcNAc(b1-2)Man(a1-6)Man(b1-4)GlcNAc(b1-4)GlcNAc
Method in brief: as §1

[16] = biological target: Gal(b1-4)GlcNAc(b1-2)Man(a1-6)[GlcNAc(b1-2)Man(a1-3)]Man(b1-4)GlcNAc(b1-4)GlcNAc
Method in brief: as §1

[17] = biological target: Gal(b1-4)GlcNAc(b1-2)Man(a1-6)[Man(a1-3)]Man(b1-4)GlcNAc(b1-4)GlcNAc
Method in brief: as §1

[18] = biological target: Gal(b1-4)GlcNAc(b1-2)[Gal(b1-4)GlcNAc(b1-4)]Man(a1-3)[Gal(b1-4)GlcNAc(b1-2)Man(a1-6)]Man(b1-4)GlcNAc(b1-4)GlcNAc
Method in brief: as §1

[19] = biological target: Gal(b1-4)GlcNAc(b1-2)[Gal(b1-4)GlcNAc(b1-4)]Man(a1-3)[Gal(b1-4)GlcNAc(b1-2)[Gal(b1-4)GlcNAc(b1-6)]Man(a1-6)]Man(b1-4)GlcNAc(b1-4)GlcNAc
Method in brief: as §1

[20] = biological target: Gal(b1-4)GlcNAc(b1-2)[Gal(b1-4)GlcNAc(b1-4)]Man(a1-3)[GlcNAc(b1-4)][Gal(b1-4)GlcNAc(b1-2)Man(a1-6)]Man(b1-4)GlcNAc(b1-4)GlcNAc
Method in brief: as §1

[21] = biological target: Gal(b1-4)GlcNAc(b1-2)[Gal(b1-4)GlcNAc(b1-4)]Man(a1-3)[GlcNAc(b1-4)][Gal(b1-4)GlcNAc(b1-2)[Gal(b1-4)GlcNAc(b1-6)]Man(a1-6)]Man(b1-4)GlcNAc(b1-4)GlcNAc
Method in brief: as §1

[22] = biological target: Gal(b1-4)GlcNAc(b1-2)[Gal(b1-4)GlcNAc(b1-6)]Man(a1-6)[Gal(b1-4)GlcNAc(b1-2)Man(a1-3)]Man(b1-4)GlcNAc(b1-4)GlcNAc
Method in brief: as §1

[23] = biological target: Gal(b1-4)GlcNAc(b1-2)[Gal(b1-4)GlcNAc(b1-6)]Man(a1-6)[Gal(b1-4)GlcNAc(b1-2)Man(a1-3)]Man(b1-4)GlcNAc(b1-4)[Fuc(a1-6)]GlcNAc
Method in brief: as §1

[24] = biological target: Gal(b1-4)GlcNAc(b1-2)[Gal(b1-4)GlcNAc(b1-6)]Man(a1-6)[GlcNAc(b1-4)][Gal(b1-4)GlcNAc(b1-2)Man(a1-3)]Man(b1-4)GlcNAc(b1-4)GlcNAc
Method in brief: as §1

[25] = biological target: Gal(b1-4)GlcNAc(b1-2)[Gal(b1-4)GlcNAc(b1-6)]Man(a1-6)[GlcNAc(b1-4)][Gal(b1-4)GlcNAc(b1-2)[Gal(b1-4)GlcNAc(b1-4)]Man(a1-3)]Man(b1-4)GlcNAc(b1-4)[Fuc(a1-6)]GlcNAc
Method in brief: as §1

[26] = biological target: Gal(b1-4)GlcNAc(b1-3)Gal(b1-3)GalNAc
Method in brief: as §1

[27] = biological target: Gal(b1-4)GlcNAc(b1-3)Gal(b1-3)GlcNAc
Method in brief: as §1

[28] = biological target: Gal(b1-4)GlcNAc(b1-3)Gal(b1-4)Glc
Method in brief: as §1

[29] = biological target: Gal(b1-4)GlcNAc(b1-3)Gal(b1-4)GlcNAc
Method in brief: as §1

[30] = biological target: Gal(b1-4)GlcNAc(b1-3)Gal(b1-4)GlcNAc(b1-2)Man(a1-3)[Gal(b1-4)GlcNAc(b1-3)Gal(b1-4)GlcNAc(b1-2)Man(a1-6)]Man(b1-4)GlcNAc(b1-4)GlcNAc
Method in brief: as §1

[31] = biological target: Gal(b1-4)GlcNAc(b1-3)Gal(b1-4)GlcNAc(b1-2)Man(a1-3)[Gal(b1-4)GlcNAc(b1-3)Gal(b1-4)GlcNAc(b1-2)Man(a1-6)]Man(b1-4)GlcNAc(b1-4)[Fuc(a1-6)]GlcNAc
Method in brief: as §1

[32] = biological target: Gal(b1-4)GlcNAc(b1-3)Gal(b1-4)GlcNAc(b1-2)[Gal(b1-4)GlcNAc(b1-3)Gal(b1-4)GlcNAc(b1-6)]Man(a1-6)[Gal(b1-4)GlcNAc(b1-3)Gal(b1-4)GlcNAc(b1-2)Man(a1-3)]Man(b1-4)GlcNAc(b1-4)GlcNAc
Method in brief: as §1

[33] = biological target: Gal(b1-4)GlcNAc(b1-3)Gal(b1-4)GlcNAc(b1-2)[Gal(b1-4)GlcNAc(b1-3)Gal(b1-4)GlcNAc(b1-6)]Man(a1-6)[Gal(b1-4)GlcNAc(b1-3)Gal(b1-4)GlcNAc(b1-2)Man(a1-3)]Man(b1-4)GlcNAc(b1-4)[Fuc(a1-6)]GlcNAc
Method in brief: as §1

[34] = biological target: Gal(b1-4)GlcNAc(b1-3)Gal(b1-4)GlcNAc(b1-3)Gal(b1-4)GlcNAc
Method in brief: as §1

[35] = biological target: Gal(b1-4)GlcNAc(b1-3)Gal(b1-4)GlcNAc(b1-3)Gal(b1-4)GlcNAc(b1-2)Man(a1-3)[Gal(b1-4)GlcNAc(b1-3)Gal(b1-4)GlcNAc(b1-3)Gal(b1-4)GlcNAc(b1-2)Man(a1-6)]Man(b1-4)GlcNAc(b1-4)GlcNAc
Method in brief: as §1

[36] = biological target: Gal(b1-4)GlcNAc(b1-3)Gal(b1-4)GlcNAc(b1-3)Gal(b1-4)GlcNAc(b1-2)Man(a1-3)[Gal(b1-4)GlcNAc(b1-3)Gal(b1-4)GlcNAc(b1-3)Gal(b1-4)GlcNAc(b1-2)Man(a1-6)]Man(b1-4)GlcNAc(b1-4)[Fuc(a1-6)]GlcNAc
Method in brief: as §1

[37] = biological target: Gal(b1-4)GlcNAc(b1-3)Gal(b1-4)GlcNAc(b1-3)Gal(b1-4)GlcNAc(b1-2)[Gal(b1-4)GlcNAc(b1-3)Gal(b1-4)GlcNAc(b1-3)Gal(b1-4)GlcNAc(b1-6)]Man(a1-6)[Gal(b1-4)GlcNAc(b1-3)Gal(b1-4)GlcNAc(b1-3)Gal(b1-4)GlcNAc(b1-2)Man(a1-3)]Man(b1-4)GlcNAc(b1-4)[Fuc(a1-6)]GlcNAc
Method in brief: as §1

B1: MGL6A (Homo sapiens) (protein)
chain: MTRTYENFQYLENKVKVQGFKNGPLPLQSLLQRLCSGPCHLLLSLGLGLLLLVIICVVGFQNSKFQRDLVTLRTDFSNFTSNTVAEIQALTSQGSSLEETIASLKAEVEGFKQERQAVHSEMLLRVQQLVQDLKKLTCQVATLNNNGEEASTEGTCCPVNWVEHQDSCYWFSHSGMSWAEAEKYCQLKNAHLVVINSREEQNFVQKYLGSAYTWMGLSDPEGAWKWVDGTDYATGFQNWKPGQPDDWQGHGLGGGEDCAHFTPDGRWNDDVCQRPYHWVCEAGLGQTSQESH
Question: What does the source list for B1?
Answer: glycan array binding signal (z-score) [1]: -0.178; glycan array binding signal (z-score) [2]: -0.171; glycan array binding signal (z-score) [3]: -0.172; glycan array binding signal (z-score) [4]: -0.175; glycan array binding signal (z-score) [5]: -0.172; glycan array binding signal (z-score) [6]: -0.169; glycan array binding signal (z-score) [7]: -0.175; glycan array binding signal (z-score) [8]: -0.176; glycan array binding signal (z-score) [9]: -0.173; glycan array binding signal (z-score) [10]: -0.182; glycan array binding signal (z-score) [11]: -0.179; glycan array binding signal (z-score) [12]: -0.176; glycan array binding signal (z-score) [13]: -0.177; glycan array binding signal (z-score) [14]: -0.172; glycan array binding signal (z-score) [15]: -0.173; glycan array binding signal (z-score) [16]: -0.175; glycan array binding signal (z-score) [17]: -0.167; glycan array binding signal (z-score) [18]: -0.174; glycan array binding signal (z-score) [19]: -0.178; glycan array binding signal (z-score) [20]: -0.174; glycan array binding signal (z-score) [21]: -0.197; glycan array binding signal (z-score) [22]: -0.177; glycan array binding signal (z-score) [23]: -0.172; glycan array binding signal (z-score) [24]: -0.177; glycan array binding signal (z-score) [25]: -0.172; glycan array binding signal (z-score) [26]: -0.181; glycan array binding signal (z-score) [27]: -0.174; glycan array binding signal (z-score) [28]: -0.172; glycan array binding signal (z-score) [29]: -0.176; glycan array binding signal (z-score) [30]: -0.172; glycan array binding signal (z-score) [31]: -0.171; glycan array binding signal (z-score) [32]: -0.157; glycan array binding signal (z-score) [33]: -0.158; glycan array binding signal (z-score) [34]: -0.175; glycan array binding signal (z-score) [35]: -0.169; glycan array binding signal (z-score) [36]: -0.163; glycan array binding signal (z-score) [37]: -0.162
